{"source": "patent US20250241301A1", "about": "“COMPOSITIONS AND METHODS FOR INHIBITING PATHOGEN GROWTH ON PLANTS AND IMPROVING CROP SAFETY” (priority 2024, published 2025)", "key": {"potato tubers [1]": {"system": "potato tubers", "settings": "Trans-2-heptenal 0.15 ml/kg alone or with PG; PG only 0.075 mL/kg; vapor; N = 5"}, "potato tubers [2]": {"system": "potato tubers", "type": "in vivo", "settings": "Trans-2-pentenal 0.15 ml/kg alone or with PG; PG only 0.075 mL/kg; vapor; N = 5"}, "[3]": {"settings": "at 20° C.; cited from earlier work"}, "mandarin oranges": {"system": "mandarin oranges", "assay": "T2H and T2H/PG vapor treatment of mandarin oranges, peel scarring", "settings": "for Cumulative Peel Scarring (N = 5) / Post Treatment Mandarin Visual Fruit Quality: mandarin oranges"}, "potato tubers [4]": {"system": "potato tubers", "assay": "T2H vapor treatment of stored potato tubers in Mason jars, skin lesion count (Table 4)", "type": "in vivo", "settings": "n = 5 tubers/variety"}, "potato tuber": {"system": "potato tuber", "assay": "Vapor treatment of potatoes, lesions per tuber after 30 days in cold storage", "type": "in vivo", "settings": "vapor @ 50 g/tonne (0.06 mL/kg)"}, "Yukon Gold Potatoes": {"system": "Yukon Gold Potatoes", "assay": "Dose response of aldehyde vapors for phytotoxicity on Yukon Gold potatoes"}, "potato tubers [5]": {"system": "potato tubers", "assay": "T2H / hexylene glycol vapor treatment of potato tubers, skin lesion count (Table 9)", "settings": "T2H […] alone or in mixture, HG alone 0.45 ml/kg, n = 5 tubers"}, "[6]": {"settings": "T2H 0.250 mL/kg alone or with 0.025 mL PG, PG only at 0.025 mL/kg, vapor"}, "[7]": {"settings": "T2H 0.5 mL/kg vapor, Norland Red"}, "[8]": {"settings": "T2H 0.5 mL/kg vapor, Ranger Russet"}, "[9]": {"settings": "T2H 0.5 mL/kg vapor, Yukon Gold"}, "[10]": {"settings": "T2H 1.0 mL/kg vapor, Norland Red"}, "[11]": {"settings": "T2H 1.0 mL/kg vapor, Ranger Russet"}, "[12]": {"settings": "T2H 1.0 mL/kg vapor, Yukon Gold"}}, "note": "Read-outs that look alike come from different tables or passages of the source.", "data": [{"smiles": "CCCC/C=C/C=O", "note": "[Trans-2-heptenal (T2HP), Trans-2-heptenal]", "values": [{"measurement": "48 h Post Treatment No. of Lesions", "setting": "potato tubers [1]", "result": 15}, {"measurement": "96 h Post Treatment No. of Lesions", "setting": "potato tubers [1]", "result": 20}, {"measurement": "Total No. of Lesions", "setting": "potato tubers [1]", "result": 35}]}, {"smiles": "CC(O)CO", "note": "(centres unmarked) [PG, propylene glycol]", "values": [{"measurement": "48 h Post Treatment No. of Lesions", "setting": "potato tubers [2]", "result": 4}, {"measurement": "96 h Post Treatment No. of Lesions", "setting": "potato tubers [2]", "result": 4}, {"measurement": "Total No. of Lesions", "setting": "potato tubers [2]", "result": 8}, {"measurement": "vapor pressure", "setting": "[3]", "result": 10.6, "unit": "pa"}, {"measurement": "Cumulative Peel Scarring (N = 5)", "setting": "mandarin oranges; [6]", "result": 3}, {"measurement": "Post Treatment Mandarin Visual Fruit Quality", "setting": "mandarin oranges; [6]", "result": "Minor discoloration/spotting of peel."}, {"measurement": "48 h Post Treatment No. of Lesions", "setting": "potato tubers [1]", "result": 2}, {"measurement": "96 h Post Treatment No. of Lesions", "setting": "potato tubers [1]", "result": 5}, {"measurement": "Total No. of Lesions", "setting": "potato tubers [1]", "result": 7}]}, {"smiles": "CCC/C=C/C=O", "note": "[T2H, trans-2-hexenal]", "values": [{"measurement": "No. of Fresh Lesions (96 h)", "setting": "potato tubers [4]; [7]", "result": 13}, {"measurement": "No. of Lesions (48 h)", "setting": "potato tubers [4]; [7]", "result": 3.5}, {"measurement": "Total Lesions/tuber", "setting": "potato tubers [4]; [7]", "result": 16.5}, {"measurement": "No. of Fresh Lesions (96 h)", "setting": "potato tubers [4]; [8]", "result": 6}, {"measurement": "No. of Lesions (48 h)", "setting": "potato tubers [4]; [8]", "result": 4}, {"measurement": "Total Lesions/tuber", "setting": "potato tubers [4]; [8]", "result": 10}, {"measurement": "No. of Fresh Lesions (96 h)", "setting": "potato tubers [4]; [9]", "result": 15}, {"measurement": "No. of Lesions (48 h)", "setting": "potato tubers [4]; [9]", "result": 10}, {"measurement": "Total Lesions/tuber", "setting": "potato tubers [4]; [9]", "result": 25}, {"measurement": "No. of Fresh Lesions (96 h)", "setting": "potato tubers [4]; [10]", "result": 38}, {"measurement": "No. of Lesions (48 h)", "setting": "potato tubers [4]; [10]", "result": 16}, {"measurement": "Total Lesions/tuber", "setting": "potato tubers [4]; [10]", "result": 54}, {"measurement": "No. of Fresh Lesions (96 h)", "setting": "potato tubers [4]; [11]", "result": 23}, {"measurement": "No. of Lesions (48 h)", "setting": "potato tubers [4]; [11]", "result": 3}, {"measurement": "Total Lesions/tuber", "setting": "potato tubers [4]; [11]", "result": 26}, {"measurement": "No. of Fresh Lesions (96 h)", "setting": "potato tubers [4]; [12]", "result": 10}, {"measurement": "No. of Lesions (48 h)", "setting": "potato tubers [4]; [12]", "result": 6}, {"measurement": "Total Lesions/tuber", "setting": "potato tubers [4]; [12]", "result": 16}, {"measurement": "No. of Lesions/tuber after 30 days in cold storage", "setting": "potato tuber; Dark Red Norland", "result": 2.15}, {"measurement": "No. of Lesions/tuber after 30 days in cold storage", "setting": "potato tuber; Russet Burbank", "result": 1.03}, {"measurement": "No. of Lesions/tuber after 30 days in cold storage", "setting": "potato tuber; Snowden", "result": 3.05}, {"measurement": "No. of Lesions/tuber after 30 days in cold storage", "setting": "potato tuber; Yukon Gold", "result": 0.43}, {"measurement": "vapor pressure", "setting": "[3]", "result": 13, "unit": "hpa"}, {"measurement": "phytotoxicity to mandarin peels", "setting": "mandarin oranges; 0.5 or 0.25 mL/kg applied as a vapor", "result": "phytotoxic to the peels"}, {"measurement": "Cumulative Peel Scarring (N = 5)", "setting": "mandarin oranges; [6]", "result": 13}, {"measurement": "Post Treatment Mandarin Visual Fruit Quality", "setting": "mandarin oranges; [6]", "result": "Reddish brown spotting - unacceptable"}, {"measurement": "Cumulative Peel Scarring (N = 5)", "setting": "mandarin oranges; T2H 0.500 mL/kg vapor", "result": 320}, {"measurement": "Post Treatment Mandarin Visual Fruit Quality", "setting": "mandarin oranges; T2H 0.500 mL/kg vapor", "result": "75%-90% fruit peel turned reddish"}, {"measurement": "No. of Lesions 96 h", "setting": "Yukon Gold Potatoes; […] vapor", "result": 8}, {"measurement": "No. of Lesions (48 h)", "setting": "Yukon Gold Potatoes; […] vapor", "result": 10}, {"measurement": "Total No. of Lesions (3 tubers)", "setting": "Yukon Gold Potatoes; […] vapor", "result": 18}, {"measurement": "Total No. of Lesions 48 h", "setting": "potato tubers [5]; Cecile", "result": 23}, {"measurement": "Total No. of Lesions 96 h", "setting": "potato tubers [5]; Cecile", "result": 21}, {"measurement": "Total No. of Lesions TOTAL", "setting": "potato tubers [5]; Cecile", "result": 44}, {"measurement": "Total No. of Lesions 48 h", "setting": "potato tubers [5]; Isabella", "result": 31}, {"measurement": "Total No. of Lesions 96 h", "setting": "potato tubers [5]; Isabella", "result": 12}, {"measurement": "Total No. of Lesions TOTAL", "setting": "potato tubers [5]; Isabella", "result": 43}]}, {"smiles": "CCCCCCC/C=C/C=O", "note": "[Trans-2-decenal (T2D), Trans-2-Decenal]", "values": [{"measurement": "phytotoxicity on potato, comparison of aldehydes", "setting": "Yukon Gold Potatoes; 0.10-0.20 mL/kg vapor", "result": "generally more phytotoxic"}, {"measurement": "No. of Lesions 96 h", "setting": "Yukon Gold Potatoes; 0.10 mL/kg vapor", "result": 15}, {"measurement": "No. of Lesions (48 h)", "setting": "Yukon Gold Potatoes; 0.10 mL/kg vapor", "result": 10}, {"measurement": "Total No. of Lesions (3 tubers)", "setting": "Yukon Gold Potatoes; 0.10 mL/kg vapor", "result": 25}, {"measurement": "No. of Lesions 96 h", "setting": "Yukon Gold Potatoes; 0.20 mL/kg vapor", "result": 36}, {"measurement": "No. of Lesions (48 h)", "setting": "Yukon Gold Potatoes; 0.20 mL/kg vapor", "result": 17}, {"measurement": "Total No. of Lesions (3 tubers)", "setting": "Yukon Gold Potatoes; 0.20 mL/kg vapor", "result": 53}, {"measurement": "No. of Lesions 96 h", "setting": "Yukon Gold Potatoes; […] vapor", "result": 18}, {"measurement": "No. of Lesions (48 h)", "setting": "Yukon Gold Potatoes; […] vapor", "result": 9}, {"measurement": "Total No. of Lesions (3 tubers)", "setting": "Yukon Gold Potatoes; […] vapor", "result": 27}]}]}
